Data as given in PubChem BioAssay AID504332 (National Center for Advancing Translational Sciences (NCATS), 2011).
Among all 350,000 compounds or so, about 31,000 (8.9%) were called active. This list was built around the results that the source calls inconclusive (neither active nor inactive); the mix of calls is not that of the screen. Calls follow the shape of the dose curve; as a rule, active = well fitted inhibition curve with a large enough effect; inconclusive = small, poorly fitted or top-dose-only effect; inactive = no such curve, though single readings can be large or run the other way. Potencies beside an inconclusive call are fits to weak or partial responses and may not hold up.

target: Histone-lysine N-methyltransferase EHMT2 (Homo sapiens) (UniProt Q96KQ7); experiment: qHTS Assay for Inhibitors of Histone Lysine Methyltransferase G9a; details: G9a H3K9 monomethylation, AlphaScreen, 2 h; activity, negative = inhibition: at 59 µM (top of the series) unless noted; also: nearly all actives have a fitted effect of over 75% in size
Procedure, shortened: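 Step 1: enzyme (final 20 nM) with compound, 15 min RT. Step 2: substrate peptide 500 nM and SAM 20 uM, 2 h RT. Step 3: anti-H3K9me1 antibody and AlphaScreen beads, 10 min, then plate read.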
% is scaled to controls: 0 for no effect and ±100 for the full control effect; potency is read from the fitted curve at half-maximal effect; tags tell the direction and shape of the fitted curve.

UniProt Q96KQ7, sequence (Q96KQ7 whole entry, looked up): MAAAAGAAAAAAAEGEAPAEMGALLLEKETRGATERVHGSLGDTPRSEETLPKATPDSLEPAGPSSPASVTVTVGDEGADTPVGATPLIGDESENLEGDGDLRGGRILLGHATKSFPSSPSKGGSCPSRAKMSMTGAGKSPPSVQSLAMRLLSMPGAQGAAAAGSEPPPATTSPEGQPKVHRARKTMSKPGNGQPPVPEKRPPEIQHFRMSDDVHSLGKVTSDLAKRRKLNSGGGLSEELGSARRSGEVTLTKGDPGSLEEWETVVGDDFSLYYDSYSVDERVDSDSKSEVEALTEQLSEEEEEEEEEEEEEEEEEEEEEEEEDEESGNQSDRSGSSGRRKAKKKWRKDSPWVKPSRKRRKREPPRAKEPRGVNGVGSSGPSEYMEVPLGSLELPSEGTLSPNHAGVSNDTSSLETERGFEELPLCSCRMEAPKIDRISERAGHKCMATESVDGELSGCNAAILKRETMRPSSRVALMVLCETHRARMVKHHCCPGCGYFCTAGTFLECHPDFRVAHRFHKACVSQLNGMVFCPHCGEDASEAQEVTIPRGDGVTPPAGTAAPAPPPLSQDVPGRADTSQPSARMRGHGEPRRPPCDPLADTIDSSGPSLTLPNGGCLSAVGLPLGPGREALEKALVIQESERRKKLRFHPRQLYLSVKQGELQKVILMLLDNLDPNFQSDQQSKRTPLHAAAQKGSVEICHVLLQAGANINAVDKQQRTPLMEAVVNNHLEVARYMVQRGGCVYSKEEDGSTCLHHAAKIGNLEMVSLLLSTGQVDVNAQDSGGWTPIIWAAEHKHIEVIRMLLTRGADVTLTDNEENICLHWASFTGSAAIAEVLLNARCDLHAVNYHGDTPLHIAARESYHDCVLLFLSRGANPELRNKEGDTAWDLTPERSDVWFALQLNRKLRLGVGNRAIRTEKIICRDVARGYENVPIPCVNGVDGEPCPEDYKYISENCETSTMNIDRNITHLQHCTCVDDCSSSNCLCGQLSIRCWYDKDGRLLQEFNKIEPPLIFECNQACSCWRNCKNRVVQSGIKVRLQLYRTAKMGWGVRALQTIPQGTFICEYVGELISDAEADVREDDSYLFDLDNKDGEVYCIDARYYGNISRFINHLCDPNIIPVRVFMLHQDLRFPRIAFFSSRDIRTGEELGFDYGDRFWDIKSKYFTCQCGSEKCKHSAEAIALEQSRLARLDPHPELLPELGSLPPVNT

Structure (SMILES) | Potency | activity, negative = inhibition
CCOc1ccc(CN(C(=O)c2nc(SC)ncc2Cl)C2CCS(=O)(=O)C2)cc1 (stereo not given) | inactive | –
O=C(Nc1cc(F)ccc1F)c1ccc(-n2cncn2)c([N+](=O)[O-])c1 | inconclusive: 7.94 µM [inhibitor, partial curve, poor fit] | –
CCc1nn(CC(=O)NCc2ccccc2Cl)c(=O)c2cc3ccccc3n12 | inactive | –
CCOc1ncccc1C(=O)NCCc1ccc(S(N)(=O)=O)cc1 | inconclusive: 79.4 µM [inhibitor, single point] | –
Cc1ccc2cc3cc(C(=O)N4CCN(c5ccccc5)CC4)oc3nc2c1 | inactive | –
CCOC(=O)N1CCc2c(sc(NC(=O)C3COc4ccccc4O3)c2C(N)=O)C1 (stereo not given) | inconclusive: 7.94 µM [inhibitor, full curve] | –
COc1ccc(-c2nc(N3CCN(C)CC3)sc2-c2ccc(OC)cc2)cc1 | active: 14.1 µM | –
Cc1ccnc2nc(C(=O)Nc3nnc(-c4ccc(Cl)cc4)o3)nn12 | inconclusive: 89.1 µM [inhibitor, single point] | –
O=C(CSc1nc2ccccc2o1)N1CCN(c2ccccc2)CC1 | inconclusive: 12.6 µM [inhibitor, partial curve] | –
CCn1c(C(C)NC(=O)c2cccc(C)c2)n[nH]c1=S (stereo not given) | active: 44.7 µM | –
COc1ccc(C(=O)OCC(=O)c2ccc(CNC(C)=O)s2)cc1 | active: 10 µM | –
O=c1c(N2CCN(c3cccc(Cl)c3)CC2)csc2ccccc12 | inconclusive: 28.2 µM [inhibitor, single point] | –
c1ccc2c(C[n+]3csc4ccccc43)cccc2c1 | inconclusive: 31.6 µM [inhibitor, single point] | –
CCCCSc1nc2c(c(=O)[nH]c(=O)n2C)n1CCc1ccccc1 | inconclusive: 44.7 µM [inhibitor, partial curve, poor fit] | –
Cc1ccc(CN2CCN(/N=C\c3cccc([N+](=O)[O-])c3)CC2)cc1 | active: 28.2 µM | –
O=C(NCCN1CCNC1=O)C1CCC(=O)N(Cc2ccccc2F)C1 (stereo not given) | inconclusive: 44.7 µM [inhibitor, partial curve, poor fit] | –
O=C(O)c1oc2ccccc2c1CN1CCN(c2ccccc2)CC1 | inconclusive: 8.91 µM [inhibitor, single point] | –
COc1ccc2[nH]c(=O)c(CN(Cc3ccco3)Cc3nnnn3Cc3ccccc3)cc2c1 | active: 50.1 µM | –
COc1cc(/C=N/NC(=O)CSc2ccccn2)ccc1O | inactive | –
O=c1oc2ccccc2c(N2CCOCC2)c1[N+](=O)[O-] | inconclusive: 79.4 µM [inhibitor, partial curve, poor fit] | –
CN(C)CC(C)(C)CNC(=O)C1CCN(CCCc2ccccc2)CC1 | inconclusive: 39.8 µM [inhibitor, partial curve, poor fit] | –
O=Cc1ccc(-c2ccc([N+](=O)[O-])cc2Cl)o1 | active: 35.5 µM | –
COc1ccc(Oc2cc(Cl)nc(N)n2)cc1 | active: 50.1 µM | –
COC(=O)/C(NC(C)=O)=C(\C)c1ccc(Cl)cc1 | inactive | –

Structure (SMILES) | Potency | activity, negative = inhibition
CC(C)c1ccc(N2CCN(C(=O)c3ccccc3NC(=O)/C=C\C(=O)O)CC2)cc1 | inconclusive: 56.2 µM [inhibitor, partial curve, poor fit] | –
Cc1ccc(-c2nc(S(=O)(=O)c3ccc(C)cc3)c(SCC(=O)Nc3ccc(F)cc3)o2)cc1 | inactive | –
C/C(=N/NS(=O)(=O)c1ccc(C)cc1C)c1c[nH]c2ccccc12 | inconclusive: 70.8 µM [inhibitor, single point] | –
O=C(NCc1cccnc1)c1ccc(CS(=O)(=O)c2ccc(Br)cc2)o1 | inconclusive: 79.4 µM [inhibitor, single point] | –
COc1ccc2nc(NC(=O)CSC(C)C(=O)Nc3cc(C)on3)sc2c1 (stereo not given) | – | inactive: 4.26% [at 0.501 µM]
Cc1ccc(S(=O)(=O)NC(C)C(=O)NC2CCCCCC2)cc1 (stereo not given) | inconclusive: 25.1 µM [inhibitor, single point] | –
Cc1cccc2c1-c1sc(C(=O)NCc3ccc(Cl)cc3)cc1CO2 | inactive | –
CCOC(=O)C1CN(c2cc3c(cc2F)c(=O)c(C(=O)O)cn3CC)OC1C(=O)OCC (stereo not given) | active: 39.8 µM | –
Cc1cccc(N2CC(c3nc4ccccc4n3CCC3CCCCC3)CC2=O)c1 (stereo not given) | inconclusive: 39.8 µM [inhibitor, single point] | –
COc1ccc(/C=C/C(=O)c2ccc(NC3=NCCCS3)cc2)cc1OC | inconclusive: 50.1 µM [inhibitor, partial curve, poor fit] | –
Cc1ccc(N2CCN(c3ccc(NC(=O)CCC(=O)O)cc3)CC2)cc1 | inconclusive: 39.8 µM [inhibitor, single point] | –
Cc1cc(C)cc(NC(=O)Cn2nnc(C(=O)NCc3ccccc3Cl)c2N)c1 | active: 1.12 µM | –
CCOc1ccc(C(=O)Nc2ccccc2C(=O)OCc2cc(=O)n3nc(C4CC4)sc3n2)cc1 | – | inactive: 1.05% [at 12.7 µM]
CN1C(C(=O)c2ccccc2)=C(NC(=O)c2ccccc2Br)c2ccccc2S1(=O)=O | inconclusive: 7.08 µM [inhibitor, partial curve, poor fit] | –
COc1ccc(NC(=O)Nc2cccc(OCc3cc(=O)n4cccc(C)c4n3)c2)c(OC)c1 | inconclusive: 6.31 µM [inhibitor, single point] | –
COCCn1c(C)cc(O)c(C(c2ccc(Cl)cc2)N2CCN(c3ccccc3)CC2)c1=O (stereo not given) | inconclusive: 39.8 µM [inhibitor, single point] | –
COc1ccccc1OCCCCN1CCC(C)CC1 | active: 25.1 µM | –
Cc1c(NC(=O)c2cc(-n3cnnc3)ccc2Cl)cccc1-c1nc2ccccc2o1 | active: 2.51 µM | –
CCOC(=O)N1CCN(C(=O)Nc2sc3nc4n(c(=O)c3c2C)CCC(C)CC4)CC1 (stereo not given) | active: 31.6 µM | –
COc1cc(OC)c2c(-c3ccccc3)cc(=O)oc2c1C(CCN1CCN(c2ccccc2)CC1)c1ccc(N(C)C)cc1 (stereo not given) | – | inconclusive: -89.2% [inhibitor] [at 12.7 µM]
Cc1ccc(C)c(S(=O)(=O)N2CCN(C(=O)CCc3nc4ccccc4c(=O)[nH]3)CC2)c1 | inconclusive: 70.8 µM [inhibitor, partial curve, poor fit] | –
Cc1ccc(C(=O)CSc2n[nH]c(C)n2)cc1 | active: 10 µM | –
CCOC(=O)N1CCN(Cc2c(O)ccc3ccccc23)CC1 | inconclusive: 0.891 µM [inhibitor, single point] | –
COc1ccc(C(=O)N(C)Cc2ccc(C)o2)cc1OC1CCN(C(C)C)CC1 | inconclusive: 12.6 µM [inhibitor, full curve] | –

Structure (SMILES) | Potency | activity, negative = inhibition
COc1ccc(N(CC(=O)NN=C2CCCC2)S(=O)(=O)c2ccccc2)cc1 | – | inactive: 32% [at 12.7 µM]
Cc1ccc(Cn2c(SCC(=O)Nc3cccc(C)n3)nc3c2c(=O)n(C)c(=O)n3C)cc1 | – | inactive: -6.76% [at 12.7 µM]
COC(=O)c1ccccc1N(C)S(=O)(=O)c1cc2c3c(c1)CCC(=O)N3CCC2 | inactive | –
O=S(=O)(c1ccc2[nH]c3c(c2c1)CCCC3)N1CCN(c2cccc(C(F)(F)F)c2)CC1 | inactive | –
O=C(CSc1nnc(Cc2cccs2)n1Cc1ccco1)Nc1ccc(Br)cc1 | inconclusive: 39.8 µM [inhibitor, single point] | –
O=C(O)c1ccccc1NS(=O)(=O)c1ccccc1C(F)(F)F | inconclusive: 1.12 µM [inhibitor, full curve, poor fit] | –
C=CCC1(CC=C)CCCN1Cc1nc(COc2ccccc2)no1 | inconclusive: 11.2 µM [inhibitor, full curve] | –
COC(=O)CSc1nc(N)c(NC(=O)c2ccc(OC)c(OC)c2)c(=O)[nH]1 | inconclusive: 39.8 µM [inhibitor, single point] | –
O=C1C(Cl)=C(N2CCOCC2)C(=O)N1c1ccc(Br)cc1 | active: 44.7 µM | –
NC(=O)C1CCN(C(=O)CSc2ccsc2[N+](=O)[O-])CC1 | inconclusive: 39.8 µM [inhibitor, partial curve, poor fit] | –
O=C(COc1ccc(Br)cc1)Nc1ccc(N2CCOCC2)cc1N1CCOCC1 | inconclusive: 0.282 µM [inhibitor, full curve, poor fit] | –
CCC(C(=O)Nc1cc(OC)ccc1OC)n1c(=O)c(C(F)(F)F)nc2ccccc21 (stereo not given) | inconclusive: 39.8 µM [inhibitor, single point] | –
O=C(CCCn1c(=O)c2ccccc2n(CC(=O)Nc2cccc(Cl)c2)c1=O)NCc1ccc2c(c1)OCO2 | inactive | –
CCOc1ccc2oc(=O)cc(CN3CCN(Cc4ccc(F)cc4)CC3)c2c1 | inactive | –
Cn1cccc1C(=O)OCc1cc(Cl)cc2c1OCOC2 | inconclusive: 44.7 µM [inhibitor, partial curve] | –
COc1ccc(-c2nnc(SCC(=O)NCCc3ccccc3)o2)cc1 | inactive | –
O=C(NCC1CCCO1)C1CCN(C2CCN(CCCC3CCCC3)CC2)CC1 (stereo not given) | inactive | –
CC(=O)c1ccc(N2CCN(c3nc4c(S(=O)(=O)c5ccc(C)c(C)c5)nnn4c4ccc(Cl)cc34)CC2)cc1 | inactive | –
CCOc1cc(C2C(C#N)=C(N)SC(N)=C2C#N)ccc1OCCN1CCOCC1 | active: 2.51 µM | –
COc1ccc(C(=O)NCC(c2ccc(N(C)C)cc2)N2CCCC2)cc1 (stereo not given) | inconclusive: 39.8 µM [inhibitor, single point] | –
N#Cc1nc(-c2cccc(Cl)c2)oc1N1CCC(C(N)=O)CC1 | inactive | –
CC1(C)CC(=O)c2c(noc2-c2ccccc2)C1 | – | inconclusive: -68.6% [inhibitor] [at 102 µM]
